# The list shows a part of the results.
# B1: PitA (Streptococcus oralis), G3F8D8 (protein)
# chain: MNIRFDFKKVQIIARRLVTLLAILFLCAPISLLNADSTTEPQTTLHKTITPISGQDDKYELSLDITSKLGTETQTDPLDVVLVADLSGSMQNQDVQSFDGRTISRIDALKNTLRGTNGRKGLIDTILSNSNNRLSMVGFGGKIDNKKVDQYWDGNKWRLFRPYWPYERMTKYYDGVSPWDDANTILGWSNNARAAKTAVYNMSIAGGNSIGTESGIGTGTNIGAGLTLANQLMGSARSNAKKVVILLSDGFANMVYDANGYTIYNYNNEDPNIETAPQWFWDRLNNNLNSLSYSLAPTLDGFYSIKFRYSNNVDSITSLQYYMRQHNASIPNEIFSANDEDQLRDSFKDITDKILPLGIHHVSIKDVLSKYVQLLPNGSSEFRVVKEKDGSSEILIENQVTFDTKTTSEGLVEVTAKFSPNYSLEDGARYVLKFTVTSSQEALDAIAGDKKLEAGDAEGSDVNKLYSNKGASVTYSYGIGNSQTKTKEYSDNPTFKPSDPLTVPVEVEWQGVTGARTVITADQPSNVELKLVQKNKNGGSDNQDYRKTNVNVSKNVSNETRNFEKVAKGYQYDLIAPDVPAFTKEIKNVGTESKPSFKVIYKQLPSLTIKKVLEAENNLNKEFRIKVKLTSPDSKPLNGTFGEITVVNGEAEIRVEKRKRWEGILSYLPRGTHYKVEEEAASTNGYHVTYENQEGDLNKDETSIVTNHKLPSLSVTKKVTGVFANLLKSFKITINIRDAQNSPLNGTYTATVNNKRTPLQFTNGRASIDLNKDQTIKIYGLPLDSHYTVEEESNSSRGYQVSYENQEGKLDGDKSATVTNNKNSVPETGVDFLSSTLMLGIILPLGGIFFTILLGYLVVHRRK
# Experiments:
# Assay in all cases: glycan array binding signal (z-score within array); higher = stronger binding
# Conditions in all cases: glycan notation: IUPAC condensed, linker removed
# Glc(a1-4)Glc = target: Glc(a1-4)Glc
# Method in brief: (§1)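 Negative Z-scores can be read as non-binding. The Z-score is calculated within each array and then averaged across arrays of one protein sequence at different concentrations or buffers and across linkers. Arrays, 3228 in all, were curated from the Consortium for Functional Glycomics database and kept only where the protein sequence was available.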
# [1] = target: Glc(a1-4)Glc(a1-4)Glc(a1-4)Glc
# Method in brief: as §1
# Glc(a1-6)Glc(a1-6)Glc = target: Glc(a1-6)Glc(a1-6)Glc
# Method in brief: as §1
# [2] = target: Glc(a1-6)Glc(a1-6)Glc(a1-6)Glc
# Method in brief: as §1
# Glc(b1-4)Glc = target: Glc(b1-4)Glc
# Method in brief: as §1
# Glc(b1-6)Glc = target: Glc(b1-6)Glc
# Method in brief: as §1
# GlcA(b1-3)Gal = target: GlcA(b1-3)Gal
# Method in brief: as §1
# GlcA(b1-3)GlcNAc = target: GlcA(b1-3)GlcNAc
# Method in brief: as §1
# GlcA(b1-6)Gal = target: GlcA(b1-6)Gal
# Method in brief: as §1
# [3] = target: GlcNAc(a1-3)Gal(b1-4)GlcNAc
# Method in brief: as §1
# [4] = target: GlcNAc(a1-4)Gal(b1-3)GlcNAc
# Method in brief: as §1
# [5] = target: GlcNAc(a1-4)Gal(b1-4)GalNAc
# Method in brief: as §1
# [6] = target: GlcNAc(a1-4)Gal(b1-4)GlcNAc
# Method in brief: as §1
# [7] = target: GlcNAc(a1-4)Gal(b1-4)GlcNAc(b1-3)Gal(b1-4)Glc
# Method in brief: as §1
# [8] = target: GlcNAc(a1-4)Gal(b1-4)GlcNAc(b1-3)Gal(b1-4)GlcNAc
# Method in brief: as §1
# [9] = target: GlcNAc(a1-4)Gal(b1-4)GlcNAc(b1-3)Gal(b1-4)GlcNAc(b1-3)Gal(b1-4)GlcNAc
# Method in brief: as §1
# [10] = target: GlcNAc(a1-4)Gal(b1-4)GlcNAc(b1-3)Gal(b1-4)[Fuc(a1-3)]GlcNAc(b1-3)Gal(b1-4)[Fuc(a1-3)]GlcNAc
# Method in brief: as §1
# [11] = target: GlcNAc(a1-6)Gal(b1-4)GlcNAc
# Method in brief: as §1
# [12] = target: GlcNAc(b1-2)Gal(b1-3)GalNAc
# Method in brief: as §1
# [13] = target: GlcNAc(b1-2)Man(a1-3)[GlcNAc(b1-2)Man(a1-6)]Man(b1-4)GlcNAc(b1-4)GlcNAc
# Method in brief: as §1
# [14] = target: GlcNAc(b1-2)Man(a1-3)[GlcNAc(b1-2)Man(a1-6)]Man(b1-4)GlcNAc(b1-4)[Fuc(a1-6)]GlcNAc
# Method in brief: as §1
# [15] = target: GlcNAc(b1-2)Man(a1-3)[GlcNAc(b1-4)][GlcNAc(b1-2)Man(a1-6)]Man(b1-4)GlcNAc(b1-4)GlcNAc
# Method in brief: as §1
# [16] = target: GlcNAc(b1-2)[GlcNAc(b1-4)]Man(a1-3)[GlcNAc(b1-2)Man(a1-6)]Man(b1-4)GlcNAc(b1-4)GlcNAc
# Method in brief: as §1
# [17] = target: GlcNAc(b1-2)[GlcNAc(b1-4)]Man(a1-3)[GlcNAc(b1-4)][GlcNAc(b1-2)Man(a1-6)]Man(b1-4)GlcNAc(b1-4)GlcNAc
# Method in brief: as §1
# [18] = target: GlcNAc(b1-2)[GlcNAc(b1-4)]Man(a1-3)[GlcNAc(b1-4)][GlcNAc(b1-2)[GlcNAc(b1-6)]Man(a1-6)]Man(b1-4)GlcNAc(b1-4)GlcNAc
# Method in brief: as §1
# [19] = target: GlcNAc(b1-2)[GlcNAc(b1-4)]Man(a1-3)[GlcNAc(b1-4)][GlcNAc(b1-2)[GlcNAc(b1-6)]Man(a1-6)]Man(b1-4)GlcNAc(b1-4)[Fuc(a1-6)]GlcNAc
# Method in brief: as §1
# [20] = target: GlcNAc(b1-2)[GlcNAc(b1-6)]Man(a1-6)[GlcNAc(b1-2)Man(a1-3)]Man(b1-4)GlcNAc(b1-4)GlcNAc
# Method in brief: as §1
# [21] = target: GlcNAc(b1-2)[GlcNAc(b1-6)]Man(a1-6)[GlcNAc(b1-2)Man(a1-3)]Man(b1-4)GlcNAc(b1-4)[Fuc(a1-6)]GlcNAc
# Method in brief: as §1
# [22] = target: GlcNAc(b1-2)[GlcNAc(b1-6)]Man(a1-6)[GlcNAc(b1-2)Man(a1-3)][GlcNAc(b1-4)]Man(b1-4)GlcNAc(b1-4)GlcNAc
# Method in brief: as §1
# GlcNAc(b1-3)Gal = target: GlcNAc(b1-3)Gal
# Method in brief: as §1
binder,measurement,setting,value
B1,glycan array binding signal (z-score),Glc(a1-4)Glc,0.019
same,glycan array binding signal (z-score),[1],0.317
same,glycan array binding signal (z-score),Glc(a1-6)Glc(a1-6)Glc,-0.253
same,glycan array binding signal (z-score),[2],0.864
same,glycan array binding signal (z-score),Glc(b1-4)Glc,-0.186
same,glycan array binding signal (z-score),Glc(b1-6)Glc,0.049
same,glycan array binding signal (z-score),GlcA(b1-3)Gal,0.067
same,glycan array binding signal (z-score),GlcA(b1-3)GlcNAc,-0.46
same,glycan array binding signal (z-score),GlcA(b1-6)Gal,-0.511
same,glycan array binding signal (z-score),[3],-0.268
same,glycan array binding signal (z-score),[4],-0.623
same,glycan array binding signal (z-score),[5],5.14
same,glycan array binding signal (z-score),[6],-0.543
same,glycan array binding signal (z-score),[7],1.05
same,glycan array binding signal (z-score),[8],-0.052
same,glycan array binding signal (z-score),[9],-0.541
same,glycan array binding signal (z-score),[10],3.75
same,glycan array binding signal (z-score),[11],-0.566
same,glycan array binding signal (z-score),[12],-0.34
same,glycan array binding signal (z-score),[13],-0.254
same,glycan array binding signal (z-score),[14],-0.417
same,glycan array binding signal (z-score),[15],-0.119
same,glycan array binding signal (z-score),[16],-0.44
same,glycan array binding signal (z-score),[17],-0.28
same,glycan array binding signal (z-score),[18],-0.52
same,glycan array binding signal (z-score),[19],-0.565
same,glycan array binding signal (z-score),[20],-0.219
same,glycan array binding signal (z-score),[21],0.736
same,glycan array binding signal (z-score),[22],-0.462
same,glycan array binding signal (z-score),GlcNAc(b1-3)Gal,-0.033

# From the supplement of paper PMC8728848
